Results from publication PMC6212790.
The list shows a part of the results. At the low end of the ranking the order means little.

The sequences below were run against T1, GST-Rok-C97-191 (UniProt O34857) (assay: protein binding microarray). Conditions: Rok is a gene silencer of Bacillus subtilis; high values mean tight binding; most listed sequences are background and not binding sites; double strand, one strand shown.
T1 sequence: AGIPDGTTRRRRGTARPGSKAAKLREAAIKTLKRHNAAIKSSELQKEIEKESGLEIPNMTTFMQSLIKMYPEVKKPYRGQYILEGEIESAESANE
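Further: rank score from −0.5 (least bound) to 0.5 (best bound).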

Row | Sequence | binding signal [E-score]
1 | CCTTCCCC | -0.184
2 | GGTACCGA | 0.00663
3 | ATTGAGGA | 0.0306
4 | CATCCTCG | -0.158
5 | ACTCTACC | -0.0607
6 | ATACTCTG | -0.0409
7 | AGAGAAGC | 0.0741
8 | AAGCGAAC | -0.218
9 | CTGTTAGA | 0.0073
10 | ACCAGCCC | -0.172
11 | CAACAGGC | -0.102
12 | GCTGGCAA | -0.071
13 | AAGCAGTG | -0.215
14 | GTGACTAA | 0.0707
15 | CTGCCAAA | -0.000971
16 | ATGCGTCG | 0.132
17 | CGGGACCC | -0.307
18 | TCGTTAAA | 0.197
19 | AGGCTGTC | -0.235
20 | AGCGAACC | -0.2
21 | CATTATCC | 0.0456
22 | CTGACACC | -0.29

Row | Sequence | binding signal [E-score]
23 | CGCCAACA | -0.132
24 | CTGCGAAG | -0.0246
25 | GACATAGC | -0.0609
26 | GCAAGCAC | -0.0636
27 | CGCATGTC | -0.072
28 | AGAGTACC | -0.0388
29 | CGCTTCAG | -0.148
30 | ATGCGACG | 0.0742
31 | CGGACAGA | 0.00926
32 | AGGACGCA | -0.134
33 | GCTTAACC | -0.121
34 | CAATAAGC | -0.0187
35 | ATCGCCCG | -0.21
36 | CCGCCCGC | -0.28
37 | ACCTCAGA | -0.177
38 | TTTGAAAA | -0.0186
39 | CCAGGGCC | -0.275
40 | CGCGACTC | -0.19
41 | CCAATGTC | -0.00982
42 | ACTGACGC | -0.161
43 | ACATGCTG | -0.04
44 | GTGACACA | 0.0273

Row | Sequence | binding signal [E-score]
45 | CGCATGCG | -0.379
46 | CTGACAAA | -0.0915
47 | ACGTTGTG | -0.000385
48 | ACATGGCG | -0.013
49 | CCAAAAAG | -0.108
50 | CGTTCTGA | -0.0815
51 | CACTTCGC | -0.103
52 | AGTTCTAT | 0.242
53 | AGGCGTGA | -0.173
54 | ACCTATGC | -0.0256
55 | GTACTGAA | 0.0812
56 | ATTCAGAG | -0.129
57 | GCCTTGAA | -0.174
58 | AGTTGCTA | 0.269
59 | AGGGTCTG | -0.226
60 | CGCGGAAA | 0.119
61 | AAGTTGAT | -0.0272
62 | CCCTTAGA | -0.122
63 | CCCCCAGG | -0.374
64 | GTACCTAC | 0.349
65 | CAAATTAG | 0.044
66 | CGATTACA | -0.117

Row | Sequence | binding signal [E-score]
67 | CGGCGAGC | -0.218
68 | CTAACGAA | 0.0767
69 | AATTCAGT | 0.0493
70 | CTAGGCTC | -0.179
71 | GTACAGAA | 0.0429
72 | AGGTGCCA | -0.101
73 | CTCAAACA | -0.00373
74 | CCCGAGAC | -0.261
75 | ATTAGCAC | 0.0299
76 | CGCCGTAC | -0.135
77 | CCAAATGG | -0.144
78 | GCTTTCCC | -0.232
79 | CCAATTTA | 0.177
80 | GCAGCCCA | -0.184
81 | CAAAATCG | 0.0988
82 | AAAGTTTC | 0.189
83 | TCGACCCA | -0.056
84 | ACGCTACC | 0.216
85 | GGAGCACA | -0.139
86 | ACAGTCTA | 0.152
